Test results reported in publication PMC5892938.
This is one part of the list. At the low end of the ranking the order means little.

Each sequence was assayed against GST-SBP-SLBP (stem-loop binding protein) (UniProt Q14493) (assay: targeted RNA Bind-n-Seq). Conditions: RBNS binding buffer: 25 mM Tris pH 7.5, 150 mM KCl, 3 mM MgCl2, 0.1% Tween, 0.5 mg/mL BSA, 1 mM DTT; 27 nM protein, 750 pM RNA pool; temperature not stated; high values mean tight binding.
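Also: DESeq read counts versus GST-SBP nonspecific binding control pulldown.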

Sequence	binding signal (log2 fold change)
GGUCACGUCUCAAUCAACUCCAUAGAGGGGGGGAAAACCCCUUUGCCCUCAGAAUCAACAGCUCGCAGUCAAG	-0.302
GGUCACGUCUCAAUCAACUCUAUGGAGGGGGGGAAAACCCCUUUACCCUCGUUUUCAACAGCUCGCAGUCAAG	-0.2
GGUCACGUCUCAAUCAACUCUCUCGAGGGGGGGAAAACCCCUUUACCCUCAACCUCAACAGCUCGCAGUCAAG	-0.276
GGUCACGUCUCAAUCAACUCUAUCCCAGGAGUUUCCUCCUGUUUUUUCAACAGCUCGCAGUCAAG	0.0574
GGUCACGUCUCAAUCAACUCAUUUUCAGGAGUUUACUCCUGUUAUUUCAACAGCUCGCAGUCAAG	0.0529
GGUCACGUCUCAAUCAACUCUCUCGAGGGGGGGAAAACCCCUUUACCCUCAUCCUCAACAGCUCGCAGUCAAG	-0.296
GGUCACGUCUCAAUCAACUCAUCCUCCAGGGAAAUCCCUGGUAUAUUCAACAGCUCGCAGUCAAG	-0.0133
GGUCACGUCUCAAUCAACUCAUCGUCCAGGGAAAGCCCUGGCUAUUUCAACAGCUCGCAGUCAAG	0.201
GGUCACGUCUCAAUCAACUCUAUCUCCAGGGAAAACCCUGGUAAUCUCAACAGCUCGCAGUCAAG	0.0452
GGUCACGUCUCAAUCAACUCUAGUCCCAGGGAAAUCCCUGGCUUAUUCAACAGCUCGCAGUCAAG	-0.0879
GGUCACGUCUCAAUCAACUCAUCCUCAGGAGUUUCCUCCUGCAAAUUCAACAGCUCGCAGUCAAG	0.164
GGUCACGUCUCAAUCAACUCUUUCUCAGGAGUUUUCUCCUGUAAUGUCAACAGCUCGCAGUCAAG	0.0078
GGUCACGUCUCAAUCAACUCAUCCCCAGGAGUUUGCUCCUGUAUUUUCAACAGCUCGCAGUCAAG	0.125
GGUCACGUCUCAAUCAACUCUAUUCCCAGGGAAAGCCCUGGCUAAUUCAACAGCUCGCAGUCAAG	-0.0162
GGUCACGUCUCAAUCAACUCUAAGGAGGGGGGGAAAACCCCUUUACCCUCAAUCUCAACAGCUCGCAGUCAAG	0.0956
GGUCACGUCUCAAUCAACUCUUCCUCCAGGGAAAGCCCUGGUUAUGUCAACAGCUCGCAGUCAAG	0.178
GGUCACGUCUCAAUCAACUCUAUUUCAGGAGUUUCCUCCUGCUUACUCAACAGCUCGCAGUCAAG	0.00983
GGUCACGUCUCAAUCAACUCUAUCUCAGGAGUUUACUCCUGUAAUCUCAACAGCUCGCAGUCAAG	0.104
GGUCACGUCUCAAUCAACUCUAUCUCCAGGGAAAUCCCUGGUUAUCUCAACAGCUCGCAGUCAAG	0.0996
GGUCACGUCUCAAUCAACUCUAUUCCAGGAGUUUACUCCUGUUAAUUCAACAGCUCGCAGUCAAG	0.164
GGUCACGUCUCAAUCAACUCUAUCCCAGGAGUUUUCUCCUGUAAUCUCAACAGCUCGCAGUCAAG	-0.00916
GGUCACGUCUCAAUCAACUCAUCCUCAGGAGUUUACUCCUGCUUUUUCAACAGCUCGCAGUCAAG	0.0763
GGUCACGUCUCAAUCAACUCUUCCUCCAGGGAAAGCCCUGGUAAACUCAACAGCUCGCAGUCAAG	0.0116
GGUCACGUCUCAAUCAACUCUUCGUCAGGAGUUUCCUCCUGUAUAUUCAACAGCUCGCAGUCAAG	-0.0332
GGUCACGUCUCAAUCAACUCUCAGGAGGGGGGGAAAACCCCUUUACCCUCAUCAUCAACAGCUCGCAGUCAAG	-0.123

Sequence	binding signal (log2 fold change)
GGUCACGUCUCAAUCAACUCUAUAGAGGGGGGGAAAACCCCUUUGCCCUCGAAUUCAACAGCUCGCAGUCAAG	0.377
GGUCACGUCUCAAUCAACUCUAGUCCAGGAGUUUCCUCCUGUAAAUUCAACAGCUCGCAGUCAAG	-0.122
GGUCACGUCUCAAUCAACUCAUAAGAGGGGGGGAAAACCCCUUUACCCUCCCAAUCAACAGCUCGCAGUCAAG	-0.373
GGUCACGUCUCAAUCAACUCAAUCUCAGGAGUUUGCUCCUGCUAAUUCAACAGCUCGCAGUCAAG	-0.0965
GGUCACGUCUCAAUCAACUCAUCGCCAGGAGUUUGCUCCUGCUAAUUCAACAGCUCGCAGUCAAG	-0.0701
GGUCACGUCUCAAUCAACUCUAUUUCCAGGGAAACCCCUGGCAUAUUCAACAGCUCGCAGUCAAG	-0.031
GGUCACGUCUCAAUCAACUCUUUCUCCAGGGAAAGCCCUGGCAUGUUCAACAGCUCGCAGUCAAG	0.18
GGUCACGUCUCAAUCAACUCUUCUCCAGGAGUUUUCUCCUGUUAAUUCAACAGCUCGCAGUCAAG	-0.122
GGUCACGUCUCAAUCAACUCUACUUCCAGGGAAAGCCCUGGCUUACUCAACAGCUCGCAGUCAAG	-0.0517
GGUCACGUCUCAAUCAACUCAAUCGCAGGAGUUUUCUCCUGGUUAUUCAACAGCUCGCAGUCAAG	0.00922
GGUCACGUCUCAAUCAACUCUUUUCCCAGGGAAAGCCCUGGCAAAUUCAACAGCUCGCAGUCAAG	0.0585
GGUCACGUCUCAAUCAACUCACUAGAGGGGGGGAAAACCCCUUUGCCCUCAUCCUCAACAGCUCGCAGUCAAG	0.0248
GGUCACGUCUCAAUCAACUCAAUUUCAGGAGUUUGCUCCUGCUUUUUCAACAGCUCGCAGUCAAG	0.191
GGUCACGUCUCAAUCAACUCAACUCCAGGAGUUUCCUCCUGUAAAUUCAACAGCUCGCAGUCAAG	0.18
GGUCACGUCUCAAUCAACUCUUCUCCCAGGGAAAACCCUGGCUUUUUCAACAGCUCGCAGUCAAG	0.105
GGUCACGUCUCAAUCAACUCGUUUUCAGGAGUUUUCUCCUGCAUUCUCAACAGCUCGCAGUCAAG	0.0191
GGUCACGUCUCAAUCAACUCCUCAGAGGGGGGGAAAACCCCUUUGCCCUCAAUCUCAACAGCUCGCAGUCAAG	-0.298
GGUCACGUCUCAAUCAACUCUUUCUCAGGAGUUUCCUCCUGUUAUUUCAACAGCUCGCAGUCAAG	0.158
GGUCACGUCUCAAUCAACUCAAUCUCCAGGGAAAGCCCUGGUAAUCUCAACAGCUCGCAGUCAAG	0.0646
GGUCACGUCUCAAUCAACUCUCAAGAGGGGGGGAAAACCCCUUUGCCCUCAAACUCAACAGCUCGCAGUCAAG	-0.197
GGUCACGUCUCAAUCAACUCUAUGGCAGGAGUUUUCUCCUGGAAUUUCAACAGCUCGCAGUCAAG	-0.0742
GGUCACGUCUCAAUCAACUCUAUCGCAGGAGUUUCCUCCUGGUAUCUCAACAGCUCGCAGUCAAG	0.0241
GGUCACGUCUCAAUCAACUCAAUCGAGGGGGGGAAAACCCCUUUACCCUCACCUUCAACAGCUCGCAGUCAAG	0.499
GGUCACGUCUCAAUCAACUCAAUUUCAGGAGUUUGCUCCUGCAUUCUCAACAGCUCGCAGUCAAG	0.149
GGUCACGUCUCAAUCAACUCUUCCUCCAGGGAAAACCCUGGCAUUCUCAACAGCUCGCAGUCAAG	-0.119

Sequence	binding signal (log2 fold change)
GGUCACGUCUCAAUCAACUCAUCCUCAGGAGUUUACUCCUGCUAAGUCAACAGCUCGCAGUCAAG	0.046
GGUCACGUCUCAAUCAACUCAAUUCCCAGGGAAAGCCCUGGUUAUCUCAACAGCUCGCAGUCAAG	-0.296
GGUCACGUCUCAAUCAACUCCUUAGAGGGGGGGAAAACCCCUUUGCCCUCCAUGUCAACAGCUCGCAGUCAAG	0.158
GGUCACGUCUCAAUCAACUCUACGCCAGGAGUUUCCUCCUGUAUUCUCAACAGCUCGCAGUCAAG	-0.0618
GGUCACGUCUCAAUCAACUCAACUUCCAGGGAAAACCCUGGCAUUCUCAACAGCUCGCAGUCAAG	0.00666
GGUCACGUCUCAAUCAACUCAGUCUCCAGGGAAAACCCUGGUAAAUUCAACAGCUCGCAGUCAAG	0.213
GGUCACGUCUCAAUCAACUCAGUCCCCAGGGAAAGCCCUGGUUUAUUCAACAGCUCGCAGUCAAG	-0.457
GGUCACGUCUCAAUCAACUCAACUCCAGGAGUUUCCUCCUGUUUUUUCAACAGCUCGCAGUCAAG	-0.179
GGUCACGUCUCAAUCAACUCAACUGAGGGGGGGAAAACCCCUUUACCCUCCAAAUCAACAGCUCGCAGUCAAG	0.448
GGUCACGUCUCAAUCAACUCUUCCCCCAGGGAAAUCCCUGGCUUUCUCAACAGCUCGCAGUCAAG	-0.32
GGUCACGUCUCAAUCAACUCAUUCUCAGGAGUUUUCUCCUGUAAUCUCAACAGCUCGCAGUCAAG	-0.026
GGUCACGUCUCAAUCAACUCUUCGGAGGGGGGGAAAACCCCUUUACCCUCACCAUCAACAGCUCGCAGUCAAG	-0.358
GGUCACGUCUCAAUCAACUCAUUCCCCAGGGAAAACCCUGGCAUAUUCAACAGCUCGCAGUCAAG	0.109
GGUCACGUCUCAAUCAACUCCAACGAGGGGGGGAAAACCCCUUUACCCUCCAUUUCAACAGCUCGCAGUCAAG	-0.102
GGUCACGUCUCAAUCAACUCUUUUUCCAGGGAAAGCCCUGGCUUACUCAACAGCUCGCAGUCAAG	-0.189
GGUCACGUCUCAAUCAACUCACACGAGGGGGGGAAAACCCCUUUACCCUCCAAUUCAACAGCUCGCAGUCAAG	-0.129
GGUCACGUCUCAAUCAACUCUCCAGAGGGGGGGAAAACCCCUUUACCCUCCACUUCAACAGCUCGCAGUCAAG	-0.0243
GGUCACGUCUCAAUCAACUCAUCCCCAGGAGUUUUCUCCUGUAAUCUCAACAGCUCGCAGUCAAG	-0.0274
GGUCACGUCUCAAUCAACUCCAUAGAGGGGGGGAAAACCCCUUUACCCUCGAAAUCAACAGCUCGCAGUCAAG	-0.308
GGUCACGUCUCAAUCAACUCAAUUUCCAGGGAAAACCCUGGCUUUCUCAACAGCUCGCAGUCAAG	0.224
GGUCACGUCUCAAUCAACUCAUCAGAGGGGGGGAAAACCCCUUUGCCCUCAAUUUCAACAGCUCGCAGUCAAG	-0.252
GGUCACGUCUCAAUCAACUCUAAAGAGGGGGGGAAAACCCCUUUGCCCUCAUCGUCAACAGCUCGCAGUCAAG	-0.195
GGUCACGUCUCAAUCAACUCAACUUCAGGAGUUUUCUCCUGUUAACUCAACAGCUCGCAGUCAAG	-0.0978
GGUCACGUCUCAAUCAACUCAUGUCCAGGAGUUUCCUCCUGCUUUCUCAACAGCUCGCAGUCAAG	0.207
